According to PubChem BioAssay AID1865 (National Center for Advancing Translational Sciences (NCATS), 2009):
Several values for one entry are separate records, joined by “and”; a condition that tells them apart may be missing. Equal values may be shown once. The whole screen tested about 280,000 compounds, of which about 540 (0.19%) were called active. The shares of active, inactive and inconclusive entries below differ from those in the screen. Calls follow the shape of the dose curve; as a rule, active = well fitted activation curve with a large enough effect; inconclusive = small, poorly fitted or top-dose-only effect; inactive = flat fitted curve, though single readings scatter. Potencies beside an inconclusive call are fits to weak or partial responses and may not hold up.

Experiment: Quantitative High-Throughput Screen for Regulators of Epigenetic Control; also: nearly all actives have a fitted effect of over 60% in size; as to GFP activation: % of control where 0% means no effect
Conditions: murine LDR cells, GFP reporter derepression, 30 h; GFP activation: at 53.9 µM (top of the series)
How it was run: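 In this reporter-derepression format, murine cells bearing a silenced integrated CMV-GFP locus incubate with test compound (30 h, 37 C), then are washed and imaged; fluorescent objects of 20–120 um count as induced cells.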
Potency is read from the fitted curve at half-maximal effect; tags tell the direction and shape of the fitted curve.

For `O=C1c2cccc3c([N+](=O)[O-])ccc(c23)C(=O)N1CC1CCCO1` (stereo not drawn), which Potency is on record?
Its Potency is inconclusive: 22.4 µM [activator, single point].

With `O=C(Nc1cccc(Cl)c1)c1cc(S(=O)(=O)NCCc2ccc(Cl)cc2)ccc1F` as the compound, how does the Potency read?
Its Potency is inconclusive: 35.5 µM [activator, single point].

With `COc1ccc(N=Cc2c(O)n(-c3cccc(C)n3)c(=O)c3ccccc23)c(OC)c1` as the compound, how does the Potency read?
The Potency was active: 12.6 µM.

Which “GFP activation” value does the source give for `CC(C)CC(=O)NCc1nc2cccnc2n1Cc1ccccc1` here?
Its value is inactive: 0%.

With `O=C(CCc1cn(Cc2ccccc2F)c2ccccc12)NCc1ccc(Cl)cc1` as the compound, how does the “GFP activation” value read?
Its value is inactive: -2.89%.

For `CCN(C(=O)CSc1nnc(Cn2nnc3ccccc32)o1)c1nc(C)cs1`, which “GFP activation” value is on record?
The value was inactive: 2%.

For `O=C(COC(=O)c1cnccn1)c1ccc([N+](=O)[O-])cc1`, which Potency is on record?
Its Potency is inconclusive: 31.6 µM [activator, single point].

With `CCCCc1c(C)c(C#N)c2nc3ccccc3n2c1Cl` as the compound, how does the Potency read?
Its Potency is inconclusive: 28.2 µM [activator, single point].

With `Nc1cc(=O)[nH]c(SCC(=O)Nc2cc(S(=O)(=O)N3CCOCC3)ccc2Cl)n1` as the compound, how does the Potency read?
The Potency was inconclusive: 20 µM [activator, single point].

With `COc1ccc(-n2c(/C=C/c3c(C)[nH]c4ccccc34)nc3ccccc3c2=O)cc1` as the compound, how does the Potency read?
Its Potency is active: 10 µM.

Which Potency does the source give for `COc1ccc(-c2noc(CN(C(=O)C(C)(C)C)C(C)C)n2)cc1` here?
The Potency was inconclusive: 0.355 µM [activator, full curve, poor fit].

Which Potency does the source give for `O=C(c1ccccc1)c1ccc2nc(Nc3cc(Cl)ccc3O)c3nncn3c2c1` here?
Its Potency is inconclusive: 25.1 µM [activator, single point].

For `COc1ccc(Nc2cc(C)c3cc(NC(=O)c4cc(OC)cc(OC)c4)ccc3n2)cc1`, which Potency is on record?
The Potency was inconclusive: 31.6 µM [activator, single point].

With `COC(=O)/C=c1\sc2ncnn2c1=O` as the compound, how does the Potency read?
The Potency was inconclusive: 35.5 µM [activator, single point].

For `CCOC(=O)c1cn2nc(Oc3ccc(C)cc3)ccc2n1`, which Potency is on record?
Its Potency is inconclusive: 1 µM [activator, full curve].

With `COc1ccc(N2C(=O)/C(=C\c3ccco3)N=C2SCC(=O)N(C(C)C)C(C)C)cc1Cl` as the compound, how does the Potency read?
The Potency was inconclusive: 31.6 µM [activator, single point].

Which Potency does the source give for `Cc1ccsc1/C=C(\C(=O)c1ccc(OC(C)C)cc1)c1nc2ccccc2o1` here?
The Potency was inconclusive: 11.2 µM [activator, single point].

Which Potency does the source give for `COc1ccc(C(=O)/C=C/C(=O)N(CC(=O)NC2CCCCC2)CC2CCCO2)c(O)c1` (stereo not drawn) here?
Its Potency is inconclusive: 4.47 µM [activator, single point].

Which Potency does the source give for `COc1ccc(NC(=O)c2cn3c4c(ccc(Cl)c4c2=O)OC(C)C3)cc1OC` (stereo not drawn) here?
Its Potency is active: 17.8 µM.

With `COc1ccccc1NC(CC(=O)c1ccccc1)C(=O)OCC(=O)c1ccc(C)cc1` (stereo not drawn) as the compound, how does the “GFP activation” value read?
Its value is inactive: -1.04%.

Which Potency does the source give for `COc1ccc(CCNc2ccc(C(CC(N)=O)NC(=O)c3ccc(Br)cc3)cc2[N+](=O)[O-])cc1` (stereo not drawn) here?
The Potency was inconclusive: 35.5 µM [activator, single point].

For `COC(=O)c1c(NC(=O)c2ccoc2C)sc2c1CCC2`, which “GFP activation” value is on record?
Its value is inactive: 0.877%.

For `Cc1cccc(NC(=O)CN2C(=O)S/C(=C\c3cc(C)n(C)c3C)C2=O)c1`, which Potency is on record?
Its Potency is inconclusive: 31.6 µM [activator, single point].

With `COC(=O)c1ccc(C(=O)OC)c(NC(=O)CSc2cccc[n+]2[O-])c1` as the compound, how does the Potency read?
The Potency was inconclusive: 5.62 µM [activator, single point].

Which Potency does the source give for `CCN(CC)c1ccc2cc(-c3nnc(-c4ccccc4)o3)c(=O)oc2c1` here?
The Potency was active: 3.16 µM.

With `CCOc1ccc(N(CC)C(=O)c2cc3c(s2)-c2ccc(Cl)cc2SC3)cc1` as the compound, how does the “GFP activation” value read?
Its value is inactive: 0.856%.

For `CC(C)c1ccc(S(=O)(=O)c2nnn3c2nc(NCc2cccs2)c2sccc23)cc1`, which Potency is on record?
Its Potency is inconclusive: 31.6 µM [activator, single point].

Which Potency does the source give for `Cc1ccc(C2=NN(S(=O)(=O)c3ccccc3)C(c3ccccc3O)C2)cc1` (stereo not drawn) here?
The Potency was inconclusive: 31.6 µM [activator, single point].

With `CC(=O)[C@@]1(O)CC[C@H]2[C@@H]3C[C@H](C)C4=CC(=O)C=C[C@]4(C)[C@@]3(F)[C@@H](O)C[C@@]21C` as the compound, how does the Potency read?
Its Potency is inconclusive: 35.5 µM [activator, single point].

With `O=C1/C(=C\c2cccnc2)CN(Cc2ccccc2)C/C1=C\c1cccnc1` as the compound, how does the Potency read?
The Potency was inconclusive: 5.62 µM [activator, single point].

For `CNC(=S)N1CCN(CCNC2=CC(=O)CC(C)(C)C2)CC1`, which Potency is on record?
Its Potency is inconclusive: 35.5 µM [activator, single point].

Which “GFP activation” value does the source give for `N#Cc1cccc(-c2cc(-n3ccnc3)ncn2)c1` here?
The value was inactive: 1.3%.

Which Potency does the source give for `COc1cccc(CNc2ncnc3c2nnn3C)c1` here?
The Potency was inconclusive: 0.0794 µM [activator, single point].

For `CN(C)CCn1c2ccccc2c2nc3ccc([N+](=O)[O-])cc3cc21`, which Potency is on record?
The Potency was inconclusive: 5.62 µM [activator, single point].

Which Potency does the source give for `CC(=O)CSc1nc2cc3c(cc2cc1C#N)OCCO3` here?
The Potency was inconclusive: 35.5 µM [activator, single point].

With `O=c1[nH]c(/C=C/c2ccccc2OC(F)F)nc2c1cnn2-c1ccccc1` as the compound, how does the “GFP activation” value read?
Its value is inactive: 0%.

For `C/C=C\C(=O)Nc1cccc(C2=NOC3(C2)C[C@@H](C(N)=O)N(C(=O)COc2ccc(Cl)cc2)C3)c1` (stereo partly drawn), which Potency is on record?
Its Potency is inconclusive: 1.26 µM [activator, full curve, poor fit].

With `Cc1ccc(S(=O)(=O)N[C@@H](Cc2ccccc2)C(=O)CCl)cc1` as the compound, how does the Potency read?
The Potency was inconclusive: 35.5 µM [activator, single point] and inconclusive: 25.1 µM [activator, single point].

With `CCN(c1ccccc1)S(=O)(=O)c1ccc(NCC2COc3ccccc3O2)nc1` (stereo not drawn) as the compound, how does the “GFP activation” value read?
The value was inactive: 8.57%.

For `CC(/C=C/c1ccc(C)o1)=C\C(=O)O`, which Potency is on record?
The Potency was inconclusive: 31.6 µM [activator, single point].

With `Cc1ccccc1CNC(=O)C1CCCN(c2nnc(-n3c(C)ccc3C)s2)C1` (stereo not drawn) as the compound, how does the Potency read?
The Potency was inconclusive: 35.5 µM [activator, single point].

Which Potency does the source give for `COc1ccc2c(c1)OC/C(=C/c1ccc(OC)c(OC)c1)C2=O` here?
Its Potency is inconclusive: 15.8 µM [activator, single point].

Which Potency does the source give for `COc1ccc(N/C=C/C(=O)c2ccc(Cl)cc2)cc1` here?
The Potency was inconclusive: 35.5 µM [activator, single point].

Which Potency does the source give for `COC(=O)c1c(-c2ccc(F)cc2)csc1NC(=O)c1ccco1` here?
Its Potency is inconclusive: 14.1 µM [activator, single point].

With `S=c1[nH]nc(-c2cccs2)n1/N=C/c1cn(-c2ccccc2)nc1-c1ccccc1` as the compound, how does the “GFP activation” value read?
Its value is inactive: -1.06%.

Which “GFP activation” value does the source give for `O=CN1CCc2c([nH]c3ccccc23)C1c1cccc2cccnc12` (stereo not drawn) here?
Its value is inactive: -0.0725%.

Which Potency does the source give for `N#Cc1ccccc1S(=O)(=O)N1CCC(Oc2ccc(-n3cnnn3)cc2)CC1` here?
Its Potency is inconclusive: 28.2 µM [activator, single point].

For `CCc1ccc(NC(=O)CN2C(=O)CCSc3ccc(S(=O)(=O)N4CCCC4)cc32)cc1`, which Potency is on record?
Its Potency is inconclusive: 20 µM [activator, single point].

With `Cc1ccc(N2C(=O)C3C4C=CC(CNC(=S)Nc5ccc(F)cc5)(O4)C3C2=O)cc1` (stereo not drawn) as the compound, how does the Potency read?
The Potency was inconclusive: 11.2 µM [activator, partial curve].

For `Cc1ccc(N=Nc2c(O)n(CN3CCOCC3)c3ccccc23)cc1`, which Potency is on record?
Its Potency is inconclusive: 31.6 µM [activator, single point].

Which Potency does the source give for `CCOC(=S)SCC(=O)Nc1nccs1` here?
Its Potency is inconclusive: 25.1 µM [activator, single point].

With `CCc1ccc(NC(=O)Cn2c(=O)ccc3cc(S(=O)(=O)N4CCCC4)ccc32)cc1` as the compound, how does the Potency read?
Its Potency is inconclusive: 12.6 µM [activator, single point].

With `N#Cc1c(C(F)(F)F)cc(-c2ccccc2)nc1SCc1nc(N)nc(N2CCOCC2)n1` as the compound, how does the Potency read?
The Potency was active: 6.31 µM.

For `COc1ccccc1CN(Cc1ccco1)c1cnc(S(C)(=O)=O)nc1C(=O)Nc1ccccc1Cl`, which “GFP activation” value is on record?
The value was inactive: -3.23%.

With `Cc1c(C(=O)Nc2nc3ccccc3[nH]2)oc2c(Cl)cccc12` as the compound, how does the “GFP activation” value read?
The value was inactive: 0%.

For `COc1ccc(NC(=O)CSc2nc(-c3ccc(OC)c(OC)c3)[nH]c2-c2ccc(C)cc2)cc1`, which Potency is on record?
Its Potency is inconclusive: 35.5 µM [activator, single point].

Which “GFP activation” value does the source give for `CC(C)CCn1c(O)c(N=Nc2ccccn2)c2ccccc21` here?
The value was inactive: 0%.

Which “GFP activation” value does the source give for `CN1C2=CC=CC=CC2=[N+](C)C12C=CC(=[N+]([O-])[O-])C=C2[N+](=O)[O-]` (stereo not drawn) here?
Its value is inactive: -0.866%.

With `CCOC(=O)c1cnc2c(F)ccc(F)c2c1Sc1ccccc1` as the compound, how does the Potency read?
The Potency was inconclusive: 17.8 µM [activator, single point].

Which Potency does the source give for `CCOC(=O)C(C(=O)OCC)c1cc(Br)c2noc3c2c1C(=O)c1ccccc1-3` here?
The Potency was active: 3.55 µM.

For `CCCCn1cc(S(=O)(=O)c2ccc(Cl)cc2)c(=O)c2cc(F)c(N3CCCC(C)C3)cc21` (stereo not drawn), which “GFP activation” value is on record?
Its value is inactive: 1.23%.

Which Potency does the source give for `O=C(N/N=C/c1ccc(N2CCCCC2)o1)C(O)(c1ccccc1)c1ccccc1` here?
The Potency was inconclusive: 35.5 µM [activator, single point].

For `N#C/C(=C/c1ccc(-c2ccccc2[N+](=O)[O-])o1)C(N)=O`, which Potency is on record?
Its Potency is inconclusive: 35.5 µM [activator, single point].

With `CCOC(=O)c1ccc(CC(=O)c2ccc(O)c(O)c2O)o1` as the compound, how does the “GFP activation” value read?
Its value is inactive: 1.08%.

With `CCOC(=O)c1ccc(NCn2c(=O)oc3ccccc32)cc1` as the compound, how does the Potency read?
The Potency was inconclusive: 31.6 µM [activator, single point].

For `COc1cccc(C2NC(C(=O)O)CCC2C)c1` (stereo not drawn), which GFP activation is on record?
Its GFP activation is inactive: 1.06% [at 10.1 µM].

With `CN(C)C(=O)c1ccc(-c2cncnc2NCc2cccs2)cc1` as the compound, how does the “GFP activation” value read?
Its value is inactive: -0.772%.

With `N=C1SCC(=O)N1c1ncc(Cc2ccccc2Cl)s1` as the compound, how does the Potency read?
The Potency was inconclusive: 0.708 µM [activator, single point].
